Over roughly 2,300 sequences, “median log2 fold change of GCK-ALFA target abundance (FLAG IP / Myc IP barcode read proportion)” has its median near 0.095; the lowest 2% begin near -0.47. The list shows a part of the results.
B1: LC3A_28_691 (protein)
chain: SAIDETIARIRAQAEAALAAGEEALLEVTVPATATQEDIDRLIATIREAVERLAGVGKVYIVVDVESGVAQENITRLADALDELEAEYPNVTVVIALDED
B2: LC3A_28_1263 (protein)
chain: NELEKSLEEALKKAKEAVEKGEEALIEIKIPAGVTEEEVEKIIETLEEIAELTKSLPSVTIILDVERGVSQEHIDKLADKAEELEKKYPNLTIIIALEEE
B3: LC3A_28_717 (protein)
chain: SMLEESIEKALKEAKEAAEAGEEVVIEIYIPGDATEEDIEKVIKTLEEIAEILKDLKSQSIVVDVDGKVKQEHIDKIADKAEEIEEKYPNVTVIIALDEN
B4: LC3A_132_256 (protein)
chain: SEELYERFLEEAKELIDKIVDALKAGKDPSPYIKELDELAEEAAEKLSLEELERLVEEAEEYAEERFAERLDPNDPEARRALDIVEMILDSALIEAELRA
B5: LC3A_132_264 (protein)
chain: SAELLEKALAELKAIADALVAALAAGEDPWPHVRRLEETFEEYAKKLSLEETEKLAAEVLAHLEALAAARLDPNDPEARRVLDIVEMLFEGVLIEKELEE
B6: LC3A_28_864 (protein)
chain: SKTKESADAALEEAKKAKENGESTVITIKIYGKASPEEVDYVIEALKEIAEILKDIPNQGIIISLEEPLDPEQLKKLADAADEVEKKYPNVTVIIALPEE
B7: LC3A_3_1894 (protein)
chain: LEEELKRTEKLLKEAGASEEVLKKFREAFEKLLKRGYEEAAKTLIEETEKLKDASDEILLWFLEEVLEKIEKEDLNEEELIKKIKEIASTALNESEIIEL
B8: LC3A_102_144 (protein)
chain: SPEEEVKKLKEEFLKKAEEIAKKLEEKDPERAKKTLELLKKAINAIAEDAIDEIRHGFTDIEAYDIYLEAKEELEKLGDEEGLKLLEEAEKKFEEIVEKA

target: MAP1LC3A, Q9H492; assay: median log2 fold change of GCK-ALFA target abundance (FLAG IP / Myc IP barcode read proportion) (log2 ratio); each designed protein is fused to an ALFA-tag nanobody in HEK293 cells to bring the named protein to FLAG-tagged glucokinase (GCK); Myc marks an untargeted standard; higher = target protein stabilised (more abundant); settings: target protein: 3xFLAG-MCP-GCK-ALFA reporter; HEK293 landing pad (RPLP)
Outline: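 HEK293 landing-pad cells received a recombined binder library fused to the ALFA nanobody and were induced with 2 μg mL^−1 doxycycline, then transfected with a plasmid encoding a FLAG-tagged target and a Myc-tagged standard. Lysates were collected after 48 h for anti-FLAG and anti-Myc immunoprecipitation, and the circular RNA barcodes were reverse transcribed, amplified and sequenced. Target abundance for each binder is the median log2 ratio of FLAG to Myc barcode read proportions. Barcodes had to reach a proportion of at least 10^−7 in both replicates, each binder needed at least 3 barcodes per replicate, a pseudocount of 10^−6 was applied, and the two replicates were pooled.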

Row | Binder | median log2 fold change
1 | B1 | -0.0472
2 | B2 | 0.201
3 | B3 | 0.0803
4 | B4 | -0.217
5 | B5 | -0.401
6 | B6 | 0.188
7 | B7 | 0.471
8 | B8 | 0.111

From the supplement of paper PMC12632987
